Data as given in patent US20230127258.

Target: TCP-25 (thrombin-derived C-terminal peptide, …)

B1: human neutrophil elastase (protein)
chain: IVGGRRARPHAWPFMVSLQLRGGHFCGATLIAPNFVMSAAHCVANVNVRAVRVVLGAHNLSRREPTRQVFAVQRIFENGYDPVNLLNDIVILQLNGSATINANVQVAQLPAQGRRLGNGVQCLAMGWGLLGRNRGIASVLQELNVTVVTSLCRRSNVCTLVRGRQAGVCFGDSGSPLVCNGLIHGIASFVRGGCASGLYPDAFAPVAQFVNWIDSIIQ
  digestion of TCP-25 with HNE, MALDI mass spectra: After 180 min, no intact TCP-25 could be detected from the solution or gel sample
